In PubChem BioAssay AID624417 (National Center for Advancing Translational Sciences (NCATS), 2012):
The whole screen tested about 410,000 compounds, of which about 6,400 (1.6%) were called active. The inconclusive results got no clear call from the source; some entries with a clear call stand among them for comparison. Calls come from the whole dose curve; as a rule, active = well fitted inhibition curve with a large enough effect; inconclusive = small, poorly fitted or top-dose-only effect; inactive = no such curve, though single readings can be large or run the other way. Where the call is inconclusive, the potency comes from a doubtful curve fit.

What follows are compounds tested against Glucagon-like peptide 1 receptor (Homo sapiens) (UniProt P43220) (assay: qHTS of GLP-1 Receptor Inverse Agonists (Inhibition Mode)). Settings: HEK293 GLP-1R CRE-luciferase, luminescence, 24 h, GLP-1R form is constitutively active; activity change, negative = inhibition: at 38.3 µM (top of the series) unless noted.
How it was run: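 Inverse agonism was detected as reduced cAMP-driven luciferase luminescence after 24 h compound treatment. The cells were HEK293 clones expressing constitutively active human GLP-1R with the reporter. Reporter-only and GPR119 cell lines served as counterscreen controls.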
% is set by controls: 0 for no effect and ±100 for the full control effect; potency is the fitted concentration of half-maximal effect; tags give direction and shape of the fitted curve.
Note: nearly all actives have a fitted effect of over 55% in size.

UniProt P43220, sequence (P43220 whole entry, looked up): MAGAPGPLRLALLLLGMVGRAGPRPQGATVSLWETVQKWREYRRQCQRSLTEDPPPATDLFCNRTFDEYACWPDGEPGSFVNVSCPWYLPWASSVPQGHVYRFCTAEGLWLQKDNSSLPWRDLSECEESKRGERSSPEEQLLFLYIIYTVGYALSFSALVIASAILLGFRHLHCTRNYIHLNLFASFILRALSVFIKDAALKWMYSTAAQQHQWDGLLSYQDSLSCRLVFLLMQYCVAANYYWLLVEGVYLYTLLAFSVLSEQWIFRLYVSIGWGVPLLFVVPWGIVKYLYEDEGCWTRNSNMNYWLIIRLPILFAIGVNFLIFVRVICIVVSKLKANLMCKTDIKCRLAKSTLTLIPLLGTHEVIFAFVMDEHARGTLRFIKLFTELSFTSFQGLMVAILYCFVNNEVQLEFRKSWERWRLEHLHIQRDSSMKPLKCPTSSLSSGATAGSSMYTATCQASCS

Activity change, negative = inhibition, inactive:
COc1ccc(CCNC(=O)c2c(O)c3c([nH]c2=O)CCCC3)cc1 0.154%
COc1ccc(-n2nc3cc(C)c(N)cc3n2)cc1Cl 17.5%
O=C(Nc1nc(-c2ccccc2)c(-c2ccccc2)s1)c1ccc(S(=O)(=O)N2CCCC2)cc1 13.1%
O=C(Nc1cccc(-c2ccc3nncn3n2)c1)C(F)(F)F 15.1%
COc1cccc(N(C(=O)c2ccco2)c2nc(-c3sc(NC(=O)c4ccco4)nc3C)cs2)c1 -15.3%
CC1CCc2c(sc(NC(=O)COC(=O)c3ccccc3NCc3ccco3)c2C#N)C1 (centres undefined) 1.44%
CC(=O)OC1C(OC(C)=O)C2C(C)CC3OC(=O)C(C)C3CC2(C)C1OC(C)=O (centres undefined) 3.11%
CC(C)(C)c1ccc(OCC(O)CSc2ncn[nH]2)cc1 (centres undefined) 0%

Potency, inconclusive:
C=CCC[C@H](Cc1ccc(F)cc1)C(=O)OC[C@H](Cc1c[nH]c2ccccc12)NC(=O)[C@H](CC=C)CC(=O)NCCO 11.2 µM [inhibitor, partial curve, poor fit]
Cc1ccc(OCc2nnc(SCc3cc(=O)[nH]c4ccccc34)n2-c2ccccc2)cc1 10 µM [inhibitor, partial curve, poor fit]
O=C(Nc1cccc(S(=O)(=O)Nc2ccccc2Cl)c1)c1ccc(N2CCCC2)c([N+](=O)[O-])c1 10 µM [inhibitor, partial curve]
NC(=O)c1nsc(C(=O)N(CCc2ccccc2)C(C(=O)NC2CCCC2)c2ccco2)c1N (centres undefined) 2 µM [inhibitor, partial curve, poor fit]
CN(CC(=O)Nc1ccc(Cl)c(C(F)(F)F)c1)C(=O)CCC(=O)c1ccccc1 28.2 µM [inhibitor, single point]
COc1ccc(C2=NS(=O)(=O)N(C)C(C(=O)NC3CCCCC3)=C2)cc1 28.2 µM [inhibitor, single point]
C#CCNC(=O)C1=C[C@@H](c2ccc(C(F)(F)F)cc2)C[C@@H](OCc2ccc(CO)cc2)O1 10 µM [inhibitor, single point]
CN(Cc1nc(-c2ccc3c(c2)OCO3)no1)CC1(N2CCOCC2)CCCCC1 31.6 µM [inhibitor, single point]
Cc1cccc(CN2CCN(c3nc4nonc4nc3NC3CC3)CC2)c1 12.6 µM [inhibitor, single point]
CC(C)(C)C(=O)c1cnc(Nc2ccccc2)s1 28.2 µM [inhibitor, single point]
COCCNC(=O)c1cccc(OC2CCN(Cc3ccc(Cl)c(F)c3)CC2)c1 12.6 µM [inhibitor, partial curve, poor fit]
Cc1ccc(-c2nc(CS(=O)(=O)CC(=O)N3CC(C)CC(C)C3)c(C)o2)cc1 (centres undefined) 14.1 µM [inhibitor, partial curve, poor fit]
O=C(c1ccc(Cl)cc1)c1ccc(OCC(O)CN2CCOCC2)cc1 (centres undefined) 7.94 µM [inhibitor, partial curve, poor fit]
O=C(CCC(=O)c1cccs1)NC(c1ccccc1)c1ccccc1 15.8 µM [inhibitor, single point]
CCOc1ccc(S(=O)(=O)N2CCN(C(=O)c3oc4ccccc4c3C)CC2)cc1 22.4 µM [inhibitor, partial curve, poor fit]
CC(O)c1nc2ccccc2n1CCCc1ccccc1 (centres undefined) 28.2 µM [inhibitor, single point]
CSc1ncnc2c1ncn2CCCN[C@H](C)c1cccc2ccccc12 3.16 µM [inhibitor, full curve, poor fit]
COc1cccc(CNC(=O)C2CCCN(S(=O)(=O)N3CC(C)CC(C)C3)C2)c1 (centres undefined) 11.2 µM [inhibitor, partial curve, poor fit]
COc1ccc(OC)c(CN2CCC(N3CCC(C(=O)NC4CC4)CC3)CC2)c1 31.6 µM [inhibitor, partial curve, poor fit]
CCc1ccc(NC(=O)C(CC)c2ccccc2)cc1 (centres undefined) 11.2 µM [inhibitor, partial curve]
Cc1ccccc1OCC(=O)Nc1ccccc1CO 6.31 µM [inhibitor, partial curve, poor fit]
O=C(Nc1ccc(Cl)c(S(=O)(=O)N2CCOCC2)c1)c1ccc(OCC2CCCO2)cc1 (centres undefined) 7.08 µM [inhibitor, partial curve, poor fit]
Cc1ccc(S(=O)(=O)c2nc(S(C)(=O)=O)sc2N2CCN(C)CC2)cc1 14.1 µM [inhibitor, single point]
CCCCN(CC)CCCNC(=O)c1csc2c1CCCCC2 11.2 µM [inhibitor, partial curve, poor fit]
O=C(NCc1cccnc1)Nc1cc(Cl)cc(Cl)c1 12.6 µM [inhibitor, single point]
Cc1ccccc1-c1nc(S(=O)(=O)c2ccc(Br)cc2)c(NCc2cccnc2)o1 28.2 µM [inhibitor, single point]
CCN1C(=O)[C@@H]2[C@@H](c3ccc(-c4ccc(Cl)c(Cl)c4)c(OC)c3)N3CCC[C@@]3(C(=O)OC)[C@@H]2C1=O 12.6 µM [inhibitor, single point]
Cc1cccc(C)c1OCC(=O)N(Cc1ccc(Cl)cc1)CC1CCCO1 (centres undefined) 11.2 µM [inhibitor, partial curve, poor fit]

Potency, active:
NC(=S)n1[nH]c(-c2ccc([N+](=O)[O-])cc2)c(N=Nc2ccc(Cl)cc2)c1=O 10 µM
CC1CC(C)CN(C(=O)CNC(=O)c2sc3ccccc3c2Cl)C1 (centres undefined) 3.16 µM
C=C1CCN([C@@H](Cc2ccccc2)C(=O)NCc2ccc(Cl)c(Cl)c2)S(=O)(=O)c2ccccc21 11.2 µM
